According to PubChem BioAssay AID1461 (National Center for Advancing Translational Sciences (NCATS), 2008):
In all, about 220,000 compounds went through this assay and about 2,300 (1%) were called active. The shares of active, inactive and inconclusive entries below differ from those in the screen. Calls follow the shape of the dose curve; as a rule, active = well fitted inhibition curve with a large enough effect; inconclusive = small, poorly fitted or top-dose-only effect, or effect the other way; inactive = no such curve, though single readings can be large or run the other way. Where the call is inconclusive, the potency comes from a doubtful curve fit.

What follows are compounds tested against Neuropeptide S receptor (Homo sapiens) (UniProt Q6W5P4) (assay: qHTS Assay for Antagonists of the Neuropeptide S Receptor: cAMP Signal Transduction). Settings: CHO-NPSR cells, cAMP TR-FRET, antagonist mode; activity change, negative = inhibition: at 38.3 µM (top of the series) unless noted.
UniProt Q6W5P4, sequence (Q6W5P4 whole entry, looked up): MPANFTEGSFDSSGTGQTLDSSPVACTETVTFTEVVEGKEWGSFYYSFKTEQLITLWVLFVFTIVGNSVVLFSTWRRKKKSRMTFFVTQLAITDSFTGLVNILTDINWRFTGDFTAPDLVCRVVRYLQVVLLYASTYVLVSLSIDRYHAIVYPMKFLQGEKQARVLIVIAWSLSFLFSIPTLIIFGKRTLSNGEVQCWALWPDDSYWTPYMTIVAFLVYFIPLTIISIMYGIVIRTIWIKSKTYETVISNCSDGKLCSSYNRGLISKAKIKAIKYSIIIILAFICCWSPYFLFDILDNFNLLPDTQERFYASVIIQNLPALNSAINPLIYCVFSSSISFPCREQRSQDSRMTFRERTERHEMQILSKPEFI
% is scaled to controls: 0 for no effect and ±100 for the full control effect; potency is read from the fitted curve at half-maximal effect; tags tell the direction and shape of the fitted curve.
Also: nearly all actives have a fitted effect of over 50% in size.

For `C[C@H]1CC2[C@@H]3CCC4=CC(=O)C=C[C@]4(C)[C@@]3(F)[C@@H](O)C[C@]2(C)[C@@]1(O)C(=O)CO` (stereo partly drawn), which Potency is on record?
Its Potency is inconclusive: 5.01 µM [inhibitor, single point].

For `O=C(CCNC(=O)c1ccccc1)N=Nc1c(O)[nH]c2ccccc12`, which “activity change, negative = inhibition” value is on record?
The value was inactive: -18.8%.

Which Potency does the source give for `CN1CCN(c2cc(N3CCc4ccccc4C3)c(F)cc2[N+](=O)[O-])CC1` here?
The Potency was inconclusive: 25.1 µM [inhibitor, single point].

Which “activity change, negative = inhibition” value does the source give for `O=C(/C=N/O)NCC1CCNCC1` here?
Its value is inactive: -0.977% [at 46.1 µM].

Which Potency does the source give for `CCOC(=O)CSc1nc2ccc(NC(=O)CSc3nnnn3Cc3ccccc3)cc2s1` here?
The Potency was inconclusive: 1.58 µM [inhibitor, partial curve].

How did the “activity change, negative = inhibition” value turn out when `CC(Nc1cc(N2CCN(S(=O)(=O)N(C)C)CC2)ccc1[N+](=O)[O-])c1ccccc1` (stereo not drawn) was run?
Its value is inactive: -54.8%.

With `CCOc1ccc2ccccc2c1CNCCN1CCOCC1` as the compound, how does the Potency read?
The Potency was inconclusive: 5.01 µM [inhibitor, single point].

With `CC1=CC(=C(C#N)c2nc3ccccc3s2)C=C(C)N1CC1CCCO1` (stereo not drawn) as the compound, how does the “activity change, negative = inhibition” value read?
The value was inactive: -35.3%.

Which Potency does the source give for `COc1cccc(C(=O)N2N=C(c3ccccn3)CC2(O)C(F)(F)F)c1` (stereo not drawn) here?
Its Potency is inconclusive: 25.1 µM [activator, single point].

`CCOC(=O)COc1ccc(S(=O)(=O)c2ccc(OCC(=O)OCC)cc2)cc1` was tested. Which Potency did it give?
The Potency was inconclusive: 25.1 µM [inhibitor, single point].

For `CCOC(=O)N1CCN(c2nc(-c3ccco3)cc(C(F)(F)F)n2)CC1`, which Potency is on record?
Its Potency is inconclusive: 10 µM [inhibitor, single point].

For `O=C(C1CCN(Cc2ccc(Cl)cc2)CC1)N1CCN(C(c2ccccc2)c2ccccc2)CC1`, which Potency is on record?
The Potency was inconclusive: 10 µM [inhibitor, single point].

Which “activity change, negative = inhibition” value does the source give for `O=C(COc1ccccc1)NNc1nc2c(F)cc(F)cc2s1` here?
The value was inactive: 2.51%.

`Cc1[nH]c2ccccc2c1C(=O)/C=C/c1ccccc1Cl` was tested. Which “activity change, negative = inhibition” value did it give?
Its value is inactive: -31.1%.

How did the Potency turn out when `c1ccc(-c2oc3ncnc(NCCCn4ccnc4)c3c2-c2ccccc2)cc1` was run?
Its Potency is inconclusive: 10 µM [inhibitor, partial curve].

Which “activity change, negative = inhibition” value does the source give for `CCOC(=O)c1c(C)[nH]c(C2=NNC(=Nc3ccc(OCC)cc3)SC2)c1C` here?
Its value is inactive: -25.5%.

How did the Potency turn out when `Cc1nc(NC(=O)C23CC4CC(CC(C4)C2)C3)sc1Cc1ccc2c(c1)OCO2` was run?
Its Potency is inconclusive: 10 µM [inhibitor, partial curve].

Which “activity change, negative = inhibition” value does the source give for `COc1ccc(-c2cc(CS(=O)(=O)c3ccccc3)on2)cc1` here?
Its value is inactive: -3.11%.

`Cc1cc2cc(C)c(NCCNC(=O)c3ccccc3Cl)nc2cc1C` was tested. Which Potency did it give?
Its Potency is inconclusive: 12.6 µM [inhibitor, single point].

Which activity change, negative = inhibition does the source give for `Cc1cc(=O)oc2ccc(OCC(=O)N(Cc3ccc(F)cc3)Cc3ccco3)cc12` here?
Its activity change, negative = inhibition is inconclusive: -31.4% [inhibitor] [at 46.1 µM].

`Cc1noc(C)c1CSc1nc2ccccc2n1CCc1ccccc1` was tested. Which Potency did it give?
The Potency was inconclusive: 15.8 µM [inhibitor, single point].

`Cc1ccc(N(NC(=O)C(O)(c2ccccc2)c2ccccc2)C(=O)CCl)cc1` was tested. Which Potency did it give?
The Potency was active: 2.51 µM.

Which Potency does the source give for `Oc1cccc2c(NC(=S)Nc3ccc(SC(F)F)cc3)cccc12` here?
Its Potency is inconclusive: 25.1 µM [inhibitor, single point].

How did the Potency turn out when `NC(=NCCc1c[nH]c2ccccc12)NC(=O)c1ccc(Cl)cc1` was run?
The Potency was inconclusive: 12.6 µM [activator, partial curve].

Which “activity change, negative = inhibition” value does the source give for `CC(=O)Nc1nonc1NC(C)=O` here?
Its value is inactive: -22.6% [at 46.1 µM].

`Oc1ccc(-c2nnc(Nc3ccccc3)c3ccccc23)cc1` was tested. Which Potency did it give?
Its Potency is inconclusive: 12.6 µM [inhibitor, single point].

Which Potency does the source give for `C=CCSc1nnc2nc3c(nn12)c1cc(C)ccc1n3CC=C` here?
The Potency was inconclusive: 7.94 µM [inhibitor, partial curve, poor fit].

For `CCN(CC)S(=O)(=O)c1ccc(N2CCCCC2)c(C(=O)Nc2ccccc2N2CCOCC2)c1`, which Potency is on record?
The Potency was inconclusive: 10 µM [inhibitor, single point].

With `CC(=O)NCC(=O)OCC(=O)N1c2ccccc2Sc2ccccc21` as the compound, how does the “activity change, negative = inhibition” value read?
Its value is inactive: -0.456%.

`CCC(=O)Nc1cc(-c2nn(C)c(=O)c3ccccc23)ccc1N1CCCCC1` was tested. Which Potency did it give?
Its Potency is inconclusive: 12.6 µM [inhibitor, partial curve].

For `CC(Cc1cccs1)NC(=O)Nc1ccccc1` (stereo not drawn), which “activity change, negative = inhibition” value is on record?
Its value is inactive: 0.438% [at 46.1 µM].

With `Cc1cccc(C(=O)N2CCN(c3ccc([N+](=O)[O-])c(NCc4ccco4)c3)CC2)c1` as the compound, how does the Potency read?
The Potency was inconclusive: 12.6 µM [inhibitor, partial curve].

With `Cc1ccc(-c2cc(C(F)(F)F)n3ncc(C(=O)N4CCCc5ccccc54)c3n2)cc1` as the compound, how does the “activity change, negative = inhibition” value read?
The value was inactive: -13.3% [at 46.1 µM].

`NC(=O)N/N=C/c1cccc(OCc2ccc(F)cc2)c1` was tested. Which “activity change, negative = inhibition” value did it give?
The value was inactive: 19.3%.

Which Potency does the source give for `CCSc1oc(-c2cccs2)nc1S(=O)(=O)c1ccccc1` here?
Its Potency is inconclusive: 7.94 µM [inhibitor, partial curve, poor fit].

With `O=C(c1coc2ccc(O)cc12)C1CC1` as the compound, how does the Potency read?
The Potency was inconclusive: 15.8 µM [inhibitor, partial curve, poor fit].

For `O=C1CC(c2ccc(Cl)cc2)SC(N(c2ccccc2)c2ccccc2)=N1` (stereo not drawn), which Potency is on record?
The Potency was inconclusive: 12.6 µM [inhibitor, single point].

How did the Potency turn out when `O=C(NC12CC3CC(CC(C3)C1)C2)c1ccc(-c2ccccc2Cl)o1` was run?
Its Potency is inconclusive: 12.6 µM [inhibitor, partial curve].

How did the Potency turn out when `CC1(C)O[C@@H]2C[C@H]3[C@@H]4C[C@H](F)C5=CC(=O)CC[C@]5(C)[C@H]4[C@@H](O)C[C@]3(C)[C@]2(C(=O)CO)O1` was run?
The Potency was inconclusive: 0.316 µM [inhibitor, full curve, poor fit].

With `CC(C)N(Cc1nc(-c2ccccc2)no1)C(=O)C1CCCCC1` as the compound, how does the Potency read?
Its Potency is inconclusive: 10 µM [activator, single point].

Which “activity change, negative = inhibition” value does the source give for `Cc1ccccc1C(=O)Nc1nnc(-c2ccco2)o1` here?
Its value is inactive: 7.97%.

`CN1c2ccccc2-c2nc3ccccc3n2C1c1ccco1` (stereo not drawn) was tested. Which Potency did it give?
Its Potency is inconclusive: 10 µM [inhibitor, partial curve].

Which Potency does the source give for `O=C(Nc1nccs1)c1ccccc1N=Cc1ccccc1` here?
The Potency was inconclusive: 12.6 µM [inhibitor, partial curve].

How did the Potency turn out when `COc1ccc(/C=N/n2cnc3c([nH]c4ccc(F)cc43)c2=O)cc1CSc1ccccn1` was run?
Its Potency is inconclusive: 12.6 µM [inhibitor, single point].

How did the Potency turn out when `C/C(CC(=O)Nc1ccccn1)=N\NC(=O)c1cnccn1` was run?
Its Potency is inconclusive: 12.6 µM [activator, single point].

For `Cc1nn(Cc2ccccc2)c(C)c1NC(=O)c1cc(-c2ccc3c(c2)OCO3)on1`, which Potency is on record?
Its Potency is inconclusive: 10 µM [inhibitor, single point].

Which Potency does the source give for `O=C(CSc1nc2ccccc2[nH]1)c1ccc2c(c1)OCO2` here?
The Potency was inconclusive: 0.126 µM [inhibitor, single point].

For `COC(=O)C(CC(C)C)Oc1ccc2c(C)cc(=O)oc2c1` (stereo not drawn), which Potency is on record?
The Potency was inconclusive: 0.794 µM [inhibitor, partial curve].

With `CC(C)CCNC(=O)C(c1ccncc1)N(C(=O)Cn1nnc(-c2ccc(F)cc2)n1)c1ccccc1F` (stereo not drawn) as the compound, how does the Potency read?
Its Potency is inconclusive: 10 µM [inhibitor, single point].

For `O=S(=O)(c1cccc(NC(=S)N2CCN(c3ccccc3F)CC2)c1)C(F)F`, which Potency is on record?
Its Potency is inconclusive: 25.1 µM [inhibitor, single point].

For `CCOC(=O)C1=C(Cc2ccc(Cl)cc2)C(=O)c2ccccc2C1=O`, which Potency is on record?
The Potency was inconclusive: 12.6 µM [inhibitor, single point].

For `Cc1cc(C)c(OCC(=O)Nc2cccc(O)c2)cc1C`, which Potency is on record?
The Potency was inconclusive: 3.16 µM [inhibitor, single point].

For `O=C(Nc1ccc(Cl)cc1)Nc1csc([N+](=O)[O-])c1`, which Potency is on record?
Its Potency is inconclusive: 10 µM [inhibitor, single point].

With `CCCOc1ccc(/C=C/C(=O)Nc2ccc([N+](=O)[O-])cc2)cc1` as the compound, how does the Potency read?
The Potency was inconclusive: 20 µM [inhibitor, single point].

`CCOC(=O)N1CCN(C(=O)CN(c2cc(Cl)ccc2OC)S(=O)(=O)c2ccccc2)CC1` was tested. Which “activity change, negative = inhibition” value did it give?
Its value is inactive: -17.3% [at 46.1 µM].

With `CN1Cc2c(N3CCOCC3)nc3sc(C(=O)c4ccc(Br)cc4)c(N)c3c2CC1(C)C` as the compound, how does the Potency read?
The Potency was active: 12.6 µM.

`CC(C)S(=O)(=O)c1csc(NC(=O)Nc2cccc([N+](=O)[O-])c2)c1Cl` was tested. Which Potency did it give?
The Potency was inconclusive: 12.6 µM [activator, partial curve].

Which “activity change, negative = inhibition” value does the source give for `Fc1ccc(C2c3[nH]c4ccccc4c3CCN2Cc2cccn2-c2ncccn2)cc1` (stereo not drawn) here?
Its value is inactive: 5.92%.

How did the “activity change, negative = inhibition” value turn out when `N/C(=N\OC(=O)c1ccc(Cl)cc1)c1ccc(Cl)cc1` was run?
The value was inactive: -0.643% [at 46.1 µM].

With `COc1ccc(C(CC(=O)Nc2ccc(F)cc2)c2ccccc2)cc1` (stereo not drawn) as the compound, how does the Potency read?
The Potency was inconclusive: 12.6 µM [inhibitor, single point].

Which Potency does the source give for `c1ccc(-c2nc3ccccc3s2)nc1` here?
The Potency was “inactive”.

For `COc1ccc2c(c1)c(CC(=O)Nc1ccccc1OC)c(C)n2C(=O)c1ccc(Cl)cc1`, which Potency is on record?
Its Potency is inconclusive: 10 µM [inhibitor, single point].

For `C/C(=N/NC(=O)c1cccs1)c1c(C)[nH]n(-c2nc3ccccc3s2)c1=O`, which “activity change, negative = inhibition” value is on record?
The value was inactive: -25.5%.

For `CCOc1cc(C(=O)NCCc2ccc(S(N)(=O)=O)cc2)cc(OCC)c1OCC`, which Potency is on record?
Its Potency is inconclusive: 3.98 µM [activator, single point].

How did the Potency turn out when `CCOC(=O)c1c(N)sc(C(O)(C(F)(F)F)C(F)(F)F)c1-c1ccc(OC)cc1OC` was run?
The Potency was inconclusive: 10 µM [inhibitor, partial curve].

With `CCOc1cccc(-c2cc(-c3n[nH]c(=S)n3CC)c3ccccc3n2)c1` as the compound, how does the Potency read?
Its Potency is inconclusive: 7.94 µM [inhibitor, partial curve].

`CCOC(=O)Nc1cccc(OCC(=O)Nc2ccccc2OC)c1` was tested. Which Potency did it give?
Its Potency is inconclusive: 15.8 µM [inhibitor, partial curve].

Which Potency does the source give for `CS(=O)(=O)c1ccc2nc(NC(=O)c3ccc(N4CCCC4=O)cc3)sc2c1` here?
The Potency was inconclusive: 5.01 µM [activator, full curve].
